# In PubChem BioAssay (Tox21):
# “And” between values parts separate entries of the source, which are not always exact repeats. Equal entries are not always repeated. The inconclusive results got no clear call from the source; some entries with a clear call stand among them for comparison. Potencies beside an inconclusive call are fits to weak or partial responses and may not hold up. More than one record can exist for a structure, and the calls need not agree. The source made the active and inactive calls. Calls come from the whole dose curve; as a rule, active = well fitted cell-killing curve with a large enough effect in the repeat runs; inconclusive = weak or mixed curves, or effect the other way; inactive = no such curve, though single readings can be large or run the other way.
# Test: qHTS assay to identify small molecule antagonists of the thyroid receptor (TR) signaling pathway - cell viability counter screen (AID 743064); note: nearly all actives have a fitted effect of over 50% in size
# Details: GH3.TRE-Luc viability, CellTiter-Fluor, 24 h; activity change, negative = cytotoxic: at 70.3 µM (top of the series) unless noted
# Procedure, shortened: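 Compounds were tested on GH3.TRE-Luc cells in the presence of T3 at 1 nM final. Following 23.5 h at 37 °C, cell viability was quantified by CellTiter-Fluor.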
# % is set by controls: 0 for no effect and ±100 for the full control effect; potency is the fitted concentration of half-maximal effect; tags give direction and shape of the fitted curve.
Structure (SMILES),Potency,"activity change, negative = cytotoxic"
COc1ccc(N)cc1N,"inconclusive: 2.51 µM [rising, single point]",–
Cc1ccccc1O,–,inconclusive: 38.4%
O=C1OC(=O)C2C1C1(Cl)C(Cl)=C(Cl)C2(Cl)C1(Cl)Cl (stereo not drawn),inactive,–
O=C(O)C(Cl)Cl,"inconclusive: 70.5 µM [rising, single point] and inconclusive: 68.6 µM [rising, single point]",–
Clc1cc(C(Cl)(Cl)Cl)cnc1Cl,"inconclusive: 43.3 µM [cytotoxic, partial curve]",–
CC(C)CCCCCOC(=O)c1ccccc1C(=O)OCCCCCC(C)C,inconclusive: 27 µM,–
O=P(O)(O)CCCl,"inconclusive: 48.4 µM [rising, partial curve, poor fit]",–
Clc1cc(Cl)c(Cl)c(Cl)c1,inactive,–
CC(=O)C=C(C)C,"inconclusive: 0.57 µM [rising, single point]",–
ClC(Cl)(Cl)C(Cl)(Cl)Cl,"inconclusive: 27.7 µM [rising, single point]",–
CCOC(=O)CCN(SN(C)C(=O)Oc1cccc2c1OC(C)(C)C2)C(C)C,inactive,–
CC(Cc1ccccc1)NCCn1cnc2c1c(=O)n(C)c(=O)n2C (stereo not drawn),"inconclusive: 67.7 µM [cytotoxic, single point]",–
CCCN(CCC)c1c([N+](=O)[O-])cc(S(C)(=O)=O)cc1[N+](=O)[O-],"inconclusive: 77 µM [rising, single point]",–
OCCCBr,active: 54.5 µM,–
Clc1cccc2ccccc12,inactive,–
COC(=O)C(Br)CBr (stereo not drawn),inactive,–
BrCCBr,"inconclusive: 66.8 µM [rising, single point]",–
O=C(NC(=O)c1c(F)cccc1F)Nc1ccc(Cl)cc1,"inconclusive: 13.7 µM [rising, single point]",–
Nc1ccc(Cl)cc1,"inconclusive: 22.1 µM [rising, partial curve, poor fit]",–

Structure (SMILES),Potency,"activity change, negative = cytotoxic"
O=S(=O)(O)OOS(=O)(=O)O,"inconclusive: 19.3 µM [rising, partial curve, poor fit]",–
N#CC(c1ccccc1)c1ccccc1,"inconclusive: 1.22 µM [rising, full curve, poor fit]",–
CCOc1cc(C=O)ccc1O,"inconclusive: 2.17 µM [rising, partial curve]",–
CN(C)c1ccc(N(C)C)cc1,"inconclusive: 6.88 µM [rising, single point]",–
NNc1ccccc1,"inconclusive: 24.3 µM [cytotoxic, full curve, poor fit] and inconclusive: 68.6 µM [cytotoxic, single point] and inconclusive: 48.6 µM [cytotoxic, partial curve]",–
CC(C)C#N,"inconclusive: 68.6 µM [rising, single point]",–
CCOP(=O)(O)OCC (tested in a mixture with another compound),active: 7.63 µM,–
Cc1ccc(N)cc1N,"inconclusive: 61.1 µM [rising, single point]",–
CC1(C)Cc2cccc(O)c2O1,inactive,–
CCCCCCOC(=O)c1ccccc1C(=O)OCCCCCC,"inconclusive: 0.0016 µM [rising, full curve, poor fit]",–
CCN(CCO)CCO,inactive,–
O=S(=O)(c1ccc(Cl)cc1)c1ccc(Cl)cc1,"inconclusive: 7.79 µM [rising, full curve, poor fit]",–
Clc1ccc(CO/N=C(\Cn2ccnc2)c2ccc(Cl)cc2Cl)c(Cl)c1,"inconclusive: 26.6 µM [cytotoxic, partial curve, poor fit]",–
COP(N)(=O)SC (stereo not drawn),"inconclusive: 60.7 µM [rising, partial curve, poor fit]",–
Fc1cccc(Cl)c1CCl,inactive,–
OCCCCO,"inconclusive: 6.11 µM [rising, single point]",–
CC[n+]1ccccc1,inactive and active: 34.1 µM,–
CCOCN(C(=O)CCl)c1c(C)cccc1CC,"inactive and inconclusive: 68.6 µM [cytotoxic, single point]",–
O=c1[nH]c2ccccc2n1CCCN1CCC(n2c(=O)[nH]c3cc(Cl)ccc32)CC1,inconclusive: 26.6 µM [cytotoxic],–
